Measured values as given in the supplement of paper PMC10300432.
Recombinant human monoclonal antibodies (heavy:light variable regions). ELISA EC50 on the named antigen, from 10 µg/ml down; IC50 against spike pseudovirus on HT1080-ACE2 cells, 48 h; lower = stronger. Calls: IC50 above 1,000 ng/ml = non-neutralizing; EC50 above 1,000 ng/ml = non-binder.

B1: C5278 (protein)
chain 1: EVQLVESGGGLVQPGRSLRLSCAASGFTFDDYAIHWVRQPPGKGLEWVSGSSWNSGTIGYADSVKGRFIISRDNAKNSLYLQMNSLRAEDTALYYCAKDIRGPYDRTEEGAFDIWGQGTMVTVSS
chain 2: SYELTQPPSVSVAPGQTARITCGGNNIGSKSVHWYQQKPGQAPVLVVYDDSDRPSGIPERFSGSKSGNTATLTISRVEAGDEADYYCQVWDSNSDHRVFGGGTKLTVL
B2: C5279 (protein)
chain 1: EVQLVQSGAEVKKPGESLRISCKGSGYSFISYWITWVRQMPGKGLEWMGRIDSSDSYTNYSPSFQGHVTMSVDRSTNTAFLQWSSLKASDTAIYYCARRMMLKSVGLELDAFDIWGQGTMVTVSS
chain 2: DIQMTQSPSSLSASVGDRVTITCQASQNIGNHLNWYQQKPGKAPTLLIYDTSNLETGVPSRFSGSGSGTDFTLTISSLQPDDIATYYCQQYDSRGYSFGPGTKLEIK
B3: C5281 (protein)
chain 1: QLQLQESGPGLLKPSETLSLTCTVSGGSISSSSYYWGWIRQPPGKGLEWIASIFYSGSPYYNPSLQSRVTISVDTSKNQFSLRLSSVTAADTAVYYCARLAVIGGRWLQLSNFQHWGQGTLVTVSS
chain 2: QSVLTQPPSVSGAPGQRVTISCTGSSSNIGAGYDVHWYQQLPGTAPKLLIYDNSNRPSGVPDRFSASKSGTSASLAITGLQAEDEADYYCQSYDSSLSGFYVFGTGTTVTVL
B4: C5050 (protein)
chain 1: QVQLQESGPGLVKPSETLSLTCTVSGGSISGYYWSWIRQPPGKGLEWIGYIYYSGSTNYNPSLKSRVTISIDTSKNQFSLKLSSVTAADTAVYYCVRDDGGNGFPYYGMDVWGQGTTVTVSS
chain 2: EIVLTQSPATLSLSPGERATLSCRASQSVRSYLAWYQQKPGQAPRLLIYDASNRATGIAARFSGSGSGTDFTLTISSLEPEDFAVYYCQQRSNWPPEITFGPGTKVDIK
B5: C5282 (protein)
chain 1: QVQLVQSGAEVKKPGSSVKVSCKASGGTFSSYTISWVRQAPGQGLEWMGRIIPALGIANYAQKFQGRVTITADKSTSTAYMELSSLRSEDTAVFYCARDRGMRDWYFDLWGRGTLVTVSS
chain 2: QSVLTQPPSVSGAPGQRVTISCTGSNSNIGAGYDVHWYQQLPGTAPKLLIYVNSNRPSGVPDRFSASKSDTSASLAITGLQAEDEADYYCQSYDSSLSDVVFGGGTKLTVL
B6: C5283 (protein)
chain 1: EVQLVESGGGLVQPGGSLRLSCAASGFTFTNYDMYWVRQVRGKGLEWVSVIGTGGDTYYSDSVKGRFSVSRDNAKNSLYLQMNALRAGDTAVYYCARENRPPGPSYGVYGMDVWGQGTTVTVSS
chain 2: DIQMTQSPSSLSASVGDRVTITCRASQSISTYLNWYQQKPGKAPKLLIYASSTLQSGVPSRFSGSGSGTDFTLTISSLRPEDFATYYCQQNYVTPSLTFGGGTKVEIK
B7: C5284 (protein)
chain 1: EVQLVQSGAEVKKPGESLKISCKGSGYTFSYYWIGWVRQMPGKGLEWMGIIYPGDSDTKYSPSFQGQVTISADKSISTAYLQWSSLKASDTAMYYCARLVDIVGVTNLQGWFDPWGQGTLVTVSS
chain 2: SYELTQPPSVSVAPGQTARITCGGNNIGSKSVHWYQQRPGQAPVLVLYDGSDRPSGIPERFSGSNSENTATLTISRVEAGDEADYYCQVWDSSSDHQVFGGGTKVTVL
B8: C5327 (protein)
chain 1: QVQLVQSGAEVKKPGSSVKVSCKASGGTFRNYAISWVRQAPGEGLEWMGRIILTFGIANYAQNFQGRVTITADESTSTVYMELSSLRSDDTAIYYCAREGVSYLGSGTYPYFDYWGQGTLVTVSS
chain 2: QSALTQPRSVSGSPGQSVTISCTGTSSDVGGYDYVSWYQQHPGKAPKLMIYDVTRRPSGVPDRFSGSKSGNTASLTISGLQAEDEGDYYCCSYTGTYTYNYVFGTGTKVTVL
B9: C5330 (protein)
chain 1: EVQLVQSGAEVKKPGESLRISCEGSGDILTSYWITWVRQMPGKGLEWMGRIDPSDSYTEYSPSFQGHITISADQSTSTAYLQWSSLKASDTAMYYCAIYVGGFYDGGTWGQGTMVTVSS
chain 2: DIQMTQSPSTLSASVGDRVTITCRASQSISSWLAWYQQKPGKAPKPLIYKASSLRSGVPSRFSGSGSGTEFTLTISSLQPDDFATYYCQQYNSYWTFGQGTKVEIK
B10: C5286 (protein)
chain 1: QVQLVESGGGAVQPGRSLRLSCAASGFIFTTFGMHWVRQAPGKGLEWVAVIWSDGSGKHYADSVKGRFTISRDNAKNTLYLQMNNLGAEDTAVYYCARDWGDMTTLFDYWGQGTLVTVSS
chain 2: DIQMTQSPSSLSASVGDRVTITCRASQSVRSFLNWYQQKPGKAPKLLIYGASSLQSGVPSRFSGSGSGTEFTLTISSLQPEDFATYYCQQSYETPPWTFGQGTKVEIK
B11: C5051 (protein)
chain 1: QVQLVQSGAEVKKPGSSVKVSCKVSGGTFSSYAISWVRQAPGQGLEWMGGIIPLFGRTNYAQKFQGRVTITADESTSTAYMELSSLRSEDTAVFYCATYGDIVYGANVLDYWGQGTLVIVSS
chain 2: EIVLTQSPGTLSLSPGERATLSCGASQSVSNNYLAWYQQRPGQAPRLLIYGVSSRAPGIPDRFSGSGSGTDFTLTISRLEPEDFAVYYCQQYGTSRTFGQGTKVEIK
B12: C5287 (protein)
chain 1: QVQLVQSGAEVKKPGSSVKVSCKSSGGSFSSYAINWVRQAPGQGLEWMGGIVPIFGTLTFAQRFEGRLTITADESTGTAYMELSNLRSEDTAVYYCARDIEVAPLYGMDVWGQGTTVTVSS
chain 2: DIQMTQSPSSLSASVGDRVTITCRASQSISRYLNWYQQKPGKAPKLLIYGASSLQSGVPSRFSGSGSGTEFTLTISSLQPEDFATYYCQQSYSTPPITFGQGTRLEIK
B13: C5288 (protein)
chain 1: EVQLVESGGGLVQPGGSLRLSCAASGFTFSTYDMHWVRQAPGKGLEWVSLIAKDGESHYSDSVKGRFTIFREEAKNSLYLHMNSLRAEDTAVYYCARVGYSGYDFYGMDVWGQGTTVTVSS
chain 2: SYELTQPPSVSVSPGQTARITCSGDAFPNQYAYWYQQKPGQAPVLVIYKDTERPSGIPERFSGSSSGTTVTLTIGGVQVEDEADYYCQSGDSRLWVFGGGTKLTVL
B14: C5289 (protein)
chain 1: EVQLLESGGGLVQPGGSLRLSCAASGFTLSDYAMSWVRLAPGKGLEWVSSISGSGAKTHYADSVKGRFTISRDNSKNTLFLQMNSLRAEDTGLYYCAKAYCGVSCYSYILDREDAFDIWGQGTMVTVSS
chain 2: QSVLTQPPSASGTPGQRVTISCSGSSSNIGSNSVYWYQQLPGTAPKLLIFRNNQRPSGVPDRFSGSKSGTSASLAISGLRSEDEADYYCAVWDDTLSGPVFGGGTRLTVL
B15: C5290 (protein)
chain 1: EVQLVESGGGLVQPGRSLRLSCVASGFTFEDYAMHWVRQTPGKGLEWVSGISWNGGIIGSADSVQGRFIISRDNAANSMFLHMRGLRIEDSALYYCVKDKEFREAYNSRAGFDSWGQGTLVTVSS
chain 2: QSVLTQPPSASGTPGQRVSISCSGTRSNIGSNDVYWYQRLPGSAPKLLIFRNNQRPSGVPDRFSGSKSGTSASLAISGLRSEDEADYFCAAWDDRLSGPNVVFGGGTKLTVL

target: SARS-CoV-2 Omicron BA.1 spike pseudovirus; assay: pseudovirus neutralization IC50; higher = weaker neutralization
Method: (§1)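 Single-round luciferase reporter pseudovirus mixed with antibody dilutions and put on HT1080-ACE2 clone 14 cells for 48 h; signal relative to no-antibody wells, four-parameter fit.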

Row | Binder | pseudovirus neutralization IC50
1 | B1 | 0.00525 µg/mL
2 | B2 | > 1 µg/mL
3 | B3 | > 1 µg/mL
4 | B4 | > 1 µg/mL
5 | B5 | 0.11 µg/mL
6 | B6 | > 1 µg/mL
7 | B7 | 0.195 µg/mL
8 | B8 | 0.0212 µg/mL
9 | B9 | > 1 µg/mL
10 | B10 | > 1 µg/mL
11 | B11 | > 1 µg/mL
12 | B12 | 0.01 µg/mL
13 | B13 | > 1 µg/mL
14 | B14 | > 1 µg/mL
15 | B15 | 0.0413 µg/mL

target: SARS-CoV-2 Omicron BA.4/5 spike pseudovirus; assay: as above
Method: as §1

Row | Binder | pseudovirus neutralization IC50
16 | B1 | 0.0197 µg/mL
17 | B2 | > 1 µg/mL
18 | B3 | > 1 µg/mL
19 | B4 | > 1 µg/mL
20 | B5 | > 1 µg/mL
21 | B6 | > 1 µg/mL
22 | B7 | 0.322 µg/mL
23 | B8 | 0.00395 µg/mL
24 | B9 | > 1 µg/mL
25 | B10 | 0.865 µg/mL
26 | B11 | > 1 µg/mL
27 | B12 | > 1 µg/mL
28 | B13 | 0.843 µg/mL
29 | B14 | 0.603 µg/mL
30 | B15 | 0.0291 µg/mL

target: SARS-CoV-2 Wuhan-Hu-1 spike pseudovirus; assay: as above
Method: as §1

Row | Binder | pseudovirus neutralization IC50
31 | B1 | 0.00356 µg/mL
32 | B2 | 0.00205 µg/mL
33 | B3 | 0.39 µg/mL
34 | B4 | 0.857 µg/mL
35 | B5 | 0.196 µg/mL
36 | B6 | 0.922 µg/mL
37 | B7 | 0.138 µg/mL
38 | B8 | 0.00156 µg/mL
39 | B9 | > 1 µg/mL
40 | B10 | 0.101 µg/mL
41 | B11 | > 1 µg/mL
42 | B12 | 0.0533 µg/mL
43 | B13 | 0.112 µg/mL
44 | B14 | 0.016 µg/mL
45 | B15 | 0.00546 µg/mL

target: SARS-CoV-2 Wuhan-Hu-1 spike receptor-binding domain; assay: ELISA binding EC50; higher = weaker binding; ELISA of recombinant human antibody on coated antigen, from 10 µg/ml in fourfold dilutions; four-parameter fit.

Row | Binder | ELISA binding EC50
46 | B1 | 0.00364 µg/mL
47 | B2 | 0.00381 µg/mL
48 | B3 | 0.0607 µg/mL
49 | B4 | 0.00829 µg/mL
50 | B5 | 0.00547 µg/mL
51 | B6 | 0.00629 µg/mL
52 | B7 | 0.00769 µg/mL
53 | B8 | 0.00543 µg/mL
54 | B9 | 0.00529 µg/mL
55 | B10 | 0.00363 µg/mL
56 | B11 | 0.0176 µg/mL
57 | B12 | 0.00279 µg/mL
58 | B13 | 0.00602 µg/mL
59 | B14 | 0.00407 µg/mL
60 | B15 | 0.00356 µg/mL
